Results are given in words; binding and its absence hold for the method and conditions named. Some entries that bind do so weakly or less than the wild type. Blank lines part the entries; values can stand above or below the substance they belong to.
Legend:
[1] = molecular target: 6 × His-APT1 fusion protein (acyl-protein thioesterase 1, Medicago truncatula) (Medicago truncatula); experiment: condition: only with different concentrations of 2-ME during purification; nonreducing SDS-PAGE with immunoblot; purified 6 × His-APT1 after treatment with a thiol reducing agent (1 mM DTT, 10 mM GSH, 10 mM cysteine, or 2-ME during purification); both purified
[2] = molecular target: 6 × His-APT1 fusion protein (acyl-protein thioesterase 1, Medicago truncatula) (Medicago truncatula); experiment: nonreducing SDS-PAGE with immunoblot; purified APT1 treated with 10 mM GSH, then with H2O2 (40 μM and 200 μM); both purified
[3] = molecular target: 6 × His-APT1^C20S (Medicago truncatula); experiment: nonreducing SDS-PAGE with immunoblot; 6 × His-APT1 proteins after Ni purification from E. coli, no reducing agent; Tris-Tricine SDS-PAGE system; both purified
[4] = molecular target: 6 × His-APT1^C20SC22S (Medicago truncatula); experiment: as above
[5] = molecular target: 6 × His-APT1^C20SC22SC37S (Medicago truncatula); experiment: as above
[6] = molecular target: 6 × His-APT1^C20SC37S (Medicago truncatula); experiment: as above
[7] = molecular target: 6 × His-APT1^C22S (Medicago truncatula); experiment: as above
[8] = molecular target: 6 × His-APT1^C22SC37S (Medicago truncatula); experiment: as above
[9] = molecular target: 6 × His-APT1^C37S (Medicago truncatula); experiment: as above
[10] = molecular target: APT1-GFP fusion protein (p35S:APT1-GFP) in M. truncatula apt1 roots (Medicago truncatula); experiment: condition: only after recovery for 96 h from oxidative stress; nonreducing capillary electrophoresis immunoassay (Simple Jess) + other: nonreducing SDS-PAGE with immunoblot; root lysates of p35S:APT1-GFP/apt1 plants after 4 mM H2O2 and recovery under normal conditions for 96 h; anti-GFP
[11] = molecular target: APT1-GFP fusion protein (p35S:APT1-GFP) in M. truncatula apt1 roots (Medicago truncatula); experiment: nonreducing capillary electrophoresis immunoassay (Simple Jess) + other: nonreducing SDS-PAGE with immunoblot; root lysates of p35S:APT1-GFP/apt1 plants in the absence of stress; DTT-free buffers, samples not heated, anti-GFP

By UniProt entry, the sequences of proteins in these tests, tags left out. Where a name states a change or a piece, a line headed by the entry shows the natural chain unless it says otherwise.
UniProt A0A218KHF5: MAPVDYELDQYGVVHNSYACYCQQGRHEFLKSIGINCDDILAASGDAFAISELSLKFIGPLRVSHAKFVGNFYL

Substance: 6 × His-APT1^C20S (from UniProt A0A218KHF5 1-74) (enzyme)
binding [3]: binds

Substance: 6 × His-APT1^C20SC22S (from UniProt A0A218KHF5 1-74) (enzyme)
binding [4]: binds

Substance: 6 × His-APT1^C20SC37S (from UniProt A0A218KHF5 1-74) (enzyme)
binding [6]: binds

Substance: 6 × His-APT1^C22S (from UniProt A0A218KHF5 1-74) (enzyme)
binding [7]: binds

Substance: 6 × His-APT1^C22SC37S (from UniProt A0A218KHF5 1-74) (enzyme)
binding [8]: binds

Substance: 6 × His-APT1^C37S (from UniProt A0A218KHF5 1-74) (enzyme)
binding [9]: binds

Further lines, with some results ahead:

binding [1]: no binding
binding [2]: binds
Substance: 6 × His-APT1 fusion protein (acyl-protein thioesterase 1, Medicago truncatula) (from UniProt A0A218KHF5 1-74) (enzyme)

binding [5]: no binding
Substance: 6 × His-APT1^C20SC22SC37S (from UniProt A0A218KHF5 1-74) (enzyme)

binding [10]: no binding
Substance: APT1-GFP fusion protein (p35S:APT1-GFP) in M. truncatula apt1 roots (from UniProt A0A218KHF5 1-74) (enzyme)
binding [11]: no binding (condition: in the absence of stress)
